≈ marks a conversion by molar mass, not a printed value. Where “and” joins values, the source holds several entries; their conditions need not be identical. Equal values may be shown once.
Tested on: M. tuberculosis H37Rv
Test: microbe, parasite or virus in culture
Format: cell-based, Mycobacterium tuberculosis
Conditions: for MIC: Mycobacterium tuberculosis, H37RV, read-out: MIC, antimycobacterial activity against M. tuberculosis H37Rv; for MIC, antimycobacterial activity against M. tuberculosis H37Rv: aerobic conditions

| Compound | MIC [µM] | MIC, antimycobacterial activity against M. tuberculosis H37Rv |
| --- | --- | --- |
| NNC(=O)c1ccncc1 [Isoniazid] | 1.8 (≈ 0.247 µg/mL) |  |
| COc1ccc(-c2cc(CN3CCSCC3)c(C)n2-c2ccc(F)cc2)cc1 [Compound 3] |  | 0.2 µM and 0.20 µM |
| CCCc1ccc(-n2c(-c3ccc(OC)cc3)cc(CN3CCOCC3)c2C)cc1 [Compound 24] |  | 0.16 µM (≈ 0.0647 µg/mL) |
| COc1ccc(-c2cc(CN3CCOCC3)c(C)n2-c2ccc(C(C)C)cc2)cc1 [Compound 25] |  | 0.2 µM (≈ 0.0809 µg/mL) |
| Cc1ccc(-c2cc(CN3CCSCC3)c(C)n2-c2ccc(F)cc2)cc1 [Compound 2] |  | 0.16 µM (≈ 0.0609 µg/mL) |
| CO[C@H]1/C=C/O[C@@]2(C)Oc3c(C)c(O)c4c(O)c(c(/C=N/N5CCN(C)CC5)c(O)c4c3C2=O)NC(=O)/C(C)=C\C=C\[C@H](C)[C@H](O)[C@@H](C)[C@@H](O)[C@@H](C)[C@H](OC(C)=O)[C@@H]1C [Rifampin, reference compound] | 0.02 (≈ 0.0165 µg/mL) |  |
| CSc1ccc(-c2cc(CN3CCSCC3)c(C)n2-c2ccc(F)cc2)cc1 [Compound 4] |  | 0.16 µM (≈ 0.066 µg/mL) |
